We go through 30 compounds from PubChem BioAssay AID1745853 (National Center for Advancing Translational Sciences (NCATS), 2022).

Molecules are shown by their SMILES. The list shows a part of the results. These are further read-outs of the screen, such as a control signal, another cell line or another target. No call is given for them.

What all share (test): Primary Screen for Target Class Profiling of Small Molecule Inhibitors of Methyltransferases
Assay [1] has as its target Glycine N-methyltransferase (Homo sapiens) (UniProt Q14749). As to conditions: purified enzyme, MTase-Glo SAH luminescence; measured here: GNMT inhibition; at 40 µM; stronger effect = lower value. In a few lines:
(§1)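 Each enzyme was reacted with SAM and its substrate, with compounds tested once at 40 uM; SAH formed was read by MTase-Glo luminescence.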

Assay [2] has as its target Guanidinoacetate N-methyltransferase (Homo sapiens) (UniProt Q14353). As to conditions: purified enzyme, MTase-Glo SAH luminescence; measured here: GAMT inhibition; at 40 µM; stronger effect = lower value. In a few lines: as §1
In assay [3] the target is Histamine N-methyltransferase (Homo sapiens) (UniProt P50135). Conditions: purified enzyme, MTase-Glo SAH luminescence; measured here: HNMT inhibition; at 40 µM; stronger effect = lower value. In a few lines: as §1
Assay [4] has as its target Nicotinamide N-methyltransferase (Homo sapiens) (UniProt P40261). Conditions: purified enzyme, MTase-Glo SAH luminescence; measured here: NNMT inhibition; at 40 µM; stronger effect = lower value. In a few lines: as §1
For assay [5], the target named is Phenylethanolamine N-methyltransferase (Homo sapiens) (UniProt P11086). As to conditions: purified enzyme, MTase-Glo SAH luminescence; measured here: PNMT inhibition; at 40 µM; stronger effect = lower value. In a few lines: as §1
% is scaled to controls: 0 for no effect and ±100 for the full control effect.

On to `COc1ccccc1-n1cc(C(=O)N[C@H](c2cnn(C)c2)C2CC(O)C2)cn1` (stereo partly drawn), for which the activity change, negative = inhibition in assay [1] is -2.48%; in assay [2], -5.43%; in assay [3] it was -2.73%; in assay [4], -2.99%; in assay [5], -7.68%.
The like results for `Cc1cc2c(cc3n2CC(C)(C(=O)NC2CCCCCCC2)N(Cc2ccc4c(c2)OCO4)C3=O)o1` (stereo not drawn) were, in that order, -8.12%, 1.48%, 0.78%, -11.5% and -2.83%.
The like results for `CCOc1ccc(C(=O)CSc2nnc3n(C)c(=O)c4ccc(C(=O)NC(C)CC)cc4n23)cc1` (stereo not drawn) were, in that order, 2.21%, 0%, 3.43%, 3.44% and 3.85%.
For `CCc1cccc(NC(=O)Cn2nc3nc(Nc4ccc(C)cc4)ccn3c2=O)c1` the same measures were -0.401%, 0.277%, 3.18%, 2.91% and 2.32%.
For `CC(=O)N[C@@H](C(=O)O[C@H]1CCC(C)(C)[C@@H]2CCC3=C(COC3=O)[C@@]12C)C(C)C`, the activity change, negative = inhibition in assay [1] was -2.08%; in assay [2] it was -3.66%; in assay [3] it was 4.52%; in assay [4], -16%; in assay [5], -0.746%.
As for `CCCN1C(=O)c2c(C(=O)NCc3ccccc3OC)ncn2CC1(C)C(=O)NCCC(C)C` (stereo not drawn), the activity change, negative = inhibition came to 1.39% in assay [1]; 1.09% in assay [2]; 3.97% in assay [3]; 3.09% in assay [4]; 6.5% in assay [5].
The like results for `CN(C)[C@@H]1C[C@@H](CO)N(C(=O)c2csc3nc(-c4ccccc4Cl)cn23)C1` were, in that order, -2.52%, 1.44%, -17.3%, -1.88% and -2.01%.
The like results for `CCCC1c2cccn2CCN1C(=O)Nc1cc(Cl)ccc1C` (stereo not drawn) were, in that order, -3.48%, 0%, -36.2%, -2.08% and 3.61%.
For `COc1ccc(N2CC(COc3ccccc3)Oc3nc(C)ccc3C2=O)cc1` (stereo not drawn) the same measures were -8.25%, 0.774%, 0.743%, -2.27% and -2.77%.
In the case of `COc1ccc(-c2cccc(C(=O)NC3CCOCC3)c2)nn1`, the activity change, negative = inhibition in assay [1] was -3.18%; in assay [2] it was 1.72%; in assay [3], 0.467%; in assay [4] it was 0.245%; in assay [5], -0.184%.
Take `COCCN1CCC(N2CCN(C(=O)c3ccsc3)CC2)C1=O` (stereo not drawn): the activity change, negative = inhibition in assay [1] was -1.24%; in assay [2] it was 2.37%; in assay [3] it was 2.38%; in assay [4] it was -1.45%; in assay [5] it was 2.28%.
For `O=C(CCCCc1ccc2ccccc2c1)C(F)(F)F` the same measures were 3.45%, 6.07%, 7.8%, -8.1% and 6.33%.
Take `O=C(c1ccc(F)cc1)N1CCCCCC1c1nnc(-c2ccccc2)o1` (stereo not drawn): the activity change, negative = inhibition is -6.16% in assay [1]; -8.06% in assay [2]; -6.5% in assay [3]; -16.1% in assay [4]; -9.53% in assay [5].
Take `COc1cccc(N2CCN(C(=O)Cn3ncc4c3-c3ccccc3OC4)CC2)c1`: the activity change, negative = inhibition was 5.68% in assay [2], -10.6% in assay [4] and 1.76% in assay [5].
Take `CC(C)=CCc1cc2c(cc1O)OC[C@H]1c3ccc(O)cc3O[C@@H]21`: the activity change, negative = inhibition in assay [1] is -0.804%; in assay [2], -19.4%; in assay [3] it was -24.6%; in assay [4] it was -31.4%; in assay [5], -12.2%.
For `CCc1ccc(N2CC(c3noc(-c4sccc4C)n3)CC2=O)cc1` (stereo not drawn) the same measures were -3.36%, 1.73%, 2.18%, -3.92% and -10.8%.
For `NC(=O)[C@H](Cc1ccccc1)NC(=O)[C@H](CCCN=C(N)N)NC(=O)C12CC3CC(CC(C3)C1)C2` the same measures were 3.9%, 4.1%, 7.33%, -5.58% and 4.59%.
In the case of `CC(C)n1c(=O)c2ccc(C(=O)NC3CCCC3)cc2n2c(=O)n(CC(=O)Nc3ccccc3F)nc12`, the activity change, negative = inhibition in assay [1] was -1.08%; in assay [2], 0.832%; in assay [3] it was 8.54%; in assay [4], -3.75%; in assay [5], 0.176%.
For `NC(=O)[C@H](Cc1ccc(O)cc1)NC(=O)[C@@]1(O)C[C@@H](O)[C@H](O)[C@@H](NC(=O)c2ccc(F)c(Cl)c2)C1` the same measures were -6.61%, -10.6%, -4.09%, -11.4% and -7.88%.
As to `CCOC(=O)c1cc2n(n1)CC(C)(C(=O)NCc1ccccc1)N(c1ccc(Cl)cc1)C2=O` (stereo not drawn), the activity change, negative = inhibition in assay [1] was 0.754%; in assay [2], 4.23%; in assay [3], -0.994%; in assay [4] it was -0.277%; in assay [5], 1.21%.
For `CCNC(=O)Nc1ccc2ncc(Nc3ccc(C)cc3)nc2n1` the same measures were -0.69%, -12.4%, 5.32%, -21.4% and -10.3%.
For `CC(C)n1c(=O)c2ccc(C(=O)NC3CCCC3)cc2n2c(=O)n(Cc3ccccc3)nc12` the same measures were 3.8%, 0%, 8.14%, 5.22% and 5.98%.
The like results for `CCCN1C(=O)c2cc(C(=O)NCCN3CCOCC3)nn2CC1(C)C(=O)NC1CCCC1` (stereo not drawn) were, in that order, 3.79%, 0%, 2.49%, 0.692% and 0.579%.
For `CC1(C(=O)NCc2ccccc2)Cn2c(cc3ccccc32)C(=O)N1C1CCCCC1` (stereo not drawn), the activity change, negative = inhibition in assay [1] stood at 1.9%; in assay [2], 3.49%; in assay [3] it was 9.05%; in assay [4], 1.92%; in assay [5] it was 0.298%.
As for `CCN(CC)C(=O)[C@@H]1CCC[C@@H](NCc2cccc(OC)c2)CN(C)C(=O)C1`, the activity change, negative = inhibition was -0.952% in assay [1]; -4.89% in assay [2]; 3.01% in assay [3]; -0.469% in assay [4]; 2.95% in assay [5].
For `Cc1ccc(-c2ncccn2)c(C(=O)N2C[C@H](COc3ccc(F)cn3)CC[C@H]2C)c1` the same measures were -7.94%, -9.8%, 6.56%, -15.6% and -3.92%.
With `CCNC(=O)[C@@H]1CCCN1C(C)(C)C(=O)NC`, the activity change, negative = inhibition in assay [1] is -3.45%; in assay [2], -9.46%; in assay [3], -3.55%; in assay [4], -14.1%; in assay [5] it was 8.31%.
For `NC1CC(c2cc(N3CCN(c4nnc(C(F)(F)F)s4)CC3)ncn2)C1` (stereo not drawn) the same measures were -3.92%, 4.66%, -13.6%, -7.13% and -4.37%.
The like results for `COc1ccc(N(C(=O)c2ccccc2C)S(=O)(=O)c2ccc3c(c2)n(C)c(=O)n3C)cc1` were, in that order, 2.73%, 0.937%, 6.29%, 5.83% and 4.2%.
The like results for `O=c1[nH]c2cc(C(F)(F)F)ccc2n1-c1cc(C(F)(F)F)ccc1O` were, in that order, -6.2%, 9.14%, 6.48%, -12.6% and -3.46%.
